In all, about 33,000 sequences were measured (“E-score (-0.5 to 0.5)”: median about -0.035, highest 2% from about 0.35 on). Some of the results follow.
Biological target: T1, Pdr3 (UniProt P33200)
T1 sequence: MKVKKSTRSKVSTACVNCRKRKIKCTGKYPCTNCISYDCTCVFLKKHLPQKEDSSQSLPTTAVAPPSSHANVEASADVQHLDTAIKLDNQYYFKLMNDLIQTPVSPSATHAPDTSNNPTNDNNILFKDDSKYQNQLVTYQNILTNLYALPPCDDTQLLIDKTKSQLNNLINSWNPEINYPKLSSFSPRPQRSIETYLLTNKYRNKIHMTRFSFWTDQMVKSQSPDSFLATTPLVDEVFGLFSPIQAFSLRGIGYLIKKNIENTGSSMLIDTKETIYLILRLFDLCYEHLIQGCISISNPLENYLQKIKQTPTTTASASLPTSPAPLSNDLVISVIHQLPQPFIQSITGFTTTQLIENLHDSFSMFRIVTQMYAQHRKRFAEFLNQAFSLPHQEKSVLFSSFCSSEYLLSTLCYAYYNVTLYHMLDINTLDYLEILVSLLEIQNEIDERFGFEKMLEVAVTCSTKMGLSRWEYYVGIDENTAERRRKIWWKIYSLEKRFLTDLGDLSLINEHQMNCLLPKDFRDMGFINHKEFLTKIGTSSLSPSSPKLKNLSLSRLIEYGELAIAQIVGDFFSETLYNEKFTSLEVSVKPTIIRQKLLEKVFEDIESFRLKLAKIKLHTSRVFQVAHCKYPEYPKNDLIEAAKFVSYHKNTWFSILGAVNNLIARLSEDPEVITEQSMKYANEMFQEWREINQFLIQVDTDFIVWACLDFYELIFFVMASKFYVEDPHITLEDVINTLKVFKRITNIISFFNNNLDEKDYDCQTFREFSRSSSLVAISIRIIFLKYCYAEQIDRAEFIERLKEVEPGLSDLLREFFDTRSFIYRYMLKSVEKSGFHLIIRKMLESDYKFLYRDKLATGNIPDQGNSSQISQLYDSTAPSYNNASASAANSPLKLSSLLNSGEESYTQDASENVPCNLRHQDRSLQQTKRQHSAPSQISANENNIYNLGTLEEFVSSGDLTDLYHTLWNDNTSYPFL
Test: PBM E-score (8-mer binding enrichment) (E-score (-0.5 to 0.5)); higher = stronger / more preferred TF binding; most listed sequences are background and not binding sites
Conditions: protein concentration: 200 nM; construct: GST-full length
Outline: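 E-scores (a modified Wilcoxon-Mann-Whitney statistic) were assigned by the Universal PBM Analysis Suite to every ungapped eight-base word pooled with its reverse complement. The input came from universal all-10-mer Agilent arrays made double-stranded by primer extension and probed with GST-tagged yeast transcription factors at about 100-200 nM. Fluorescent anti-GST detected bound protein, and masliner normalised the scans.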

| Sequence | PBM E-score |
| --- | --- |
| GTGTGCAA | -0.072 |
| GAGACATA | -0.0427 |
| CGATCACA | 0.0753 |
| GCTGTTGA | 0.0325 |
| CCCTAATA | -0.113 |
| GCATTCAA | -0.0547 |
| CCTGTCGA | -0.195 |
| CTGGTAAC | 0.0131 |
| ACCATCCC | 0.191 |
| CTTCCCTA | -0.168 |
| ACTCCAAA | -0.123 |
| AGTTGCCA | -0.0379 |
| TGCGAACA | -0.0762 |
| GGGGAAGA | -0.174 |
| ATCGCTAG | -0.0365 |
| AAAATGAG | -0.188 |
| CACAGGGG | -0.257 |
| CACTGTGC | 0.0326 |
| AATGACGG | 0.174 |
| CAAGTACC | -0.0464 |
| ACGGAGTG | 0.323 |
| AGCGCCAT | -0.138 |
| AGATCCCT | -0.142 |
| AACTCTAG | -0.339 |
| AGGTCGGC | -0.00042 |

| Sequence | PBM E-score |
| --- | --- |
| CTCCTCGC | -0.16 |
| AGCCGCTC | 0.0409 |
| ATATGCGG | 0.184 |
| ACCACACC | 0.00706 |
| CTGCTAAC | -0.217 |
| AAGGAGGT | -0.145 |
| GGGACCCC | 0.122 |
| AGCCGCTG | 0.056 |
| ACCCGTGA | 0.0325 |
| CACCTTCA | -0.0629 |
| AGCAGGAC | -0.00491 |
| GTGGATTA | -0.0959 |
| CACTCAGA | -0.0449 |
| AAACTGAG | -0.0857 |
| AACGATCA | -0.126 |
| CAGTTAGC | -0.229 |
| GTGGCCGA | 0.107 |
| AAACTCGT | 0.0275 |
| CCCTTCAA | -0.193 |
| ACTCGAGC | -0.00557 |
| TAGGAGAA | -0.201 |
| AAATCGGT | -0.157 |
| AGTATTTC | 0.155 |
| GATTCTCC | 0.141 |
| TATGTGGA | 0.0477 |

| Sequence | PBM E-score |
| --- | --- |
| ATGACCGG | 0.0923 |
| CCCCTGAC | 0.0303 |
| CAGTGGTA | -0.213 |
| CCCCGAAC | 0.129 |
| AAGACAGT | -0.024 |
| AGTAGAAG | -0.189 |
| ACAGGGGC | -0.122 |
| ACTAGGAT | -0.196 |
| CCCGTACC | 0.153 |
| GCACCCAC | 0.0912 |
| AATCTGGG | -0.0768 |
| ATAAGCGG | -0.0222 |
| AAGGGGAA | -0.156 |
| AGCTAGGA | -0.0823 |
| AACAGACT | -0.131 |
| AGCAGCCT | -0.258 |
| AAATTTCG | -0.089 |
| CCGTAAAA | 0.172 |
| GGGTAAAA | 0.173 |
| GACGGAAA | 0.43 |
| CTTGCCCA | -0.156 |
| AGTCAGTG | -0.05 |
| AGGAAACC | 0.00802 |
| ACACGGGG | 0.147 |
| CACCAACG | -0.0913 |

| Sequence | PBM E-score |
| --- | --- |
| AAAGCTAC | -0.177 |
| CTCCTCTA | -0.354 |
| TCGTCTCA | -0.0562 |
| GCATTCGA | 0.132 |
| CAGCAAAA | -0.0582 |
| CCCCCGCG | 0.349 |
| CTCTTACC | 0.217 |
| AACGTTTC | -0.179 |
| CAGTAAAG | -0.156 |
| GGACGACA | 0.127 |
| CGCAGAAA | -0.12 |
| GGTAGTGA | 0.0142 |
| AATGAGAG | -0.122 |
| AACACTGT | -0.0501 |
| ATTGGCCC | -0.274 |
| AACTTAAA | -0.233 |
| ATACTACA | 0.186 |
| CACCAGCG | 0.0339 |
| AAAGTTTA | 0.0872 |
| TAATTACA | -0.0755 |
| CGGGCGCA | 0.143 |
| GATGAAAC | 0.0428 |
| GCGTCACC | -0.185 |
| CAGAAACG | 0.0256 |
| CTGAAATA | -0.0601 |

| Sequence | PBM E-score |
| --- | --- |
| AACCTTCC | 0.107 |
| ATCGAAAA | -0.0829 |
| ATCCAAAA | -0.00928 |
| GCTTCAGA | -0.181 |
| CCATAAGA | -0.0239 |
| CTCATGAG | -0.203 |
| GAACTAGC | -0.00564 |
| AAGGCCTG | -0.308 |
| AGCGGGGC | 0.111 |
| ACCATACG | -0.0138 |
| AGCGAATG | -0.14 |
| GGTTTACA | 0.0275 |
| AAACATGC | -0.139 |
| AGTAACGC | -0.124 |
| ATTAGCTG | -0.116 |
| AATCGGGT | 0.266 |
| ACAACACC | -0.0128 |
| CTTAAAAC | 0.0851 |
| CATTAAAG | -0.125 |
| CGCCGGCG | 0.452 |
| CGCTAGAC | -0.327 |
| ACATAGGC | -0.05 |
| CCGATGTA | 0.0383 |
| CTTCTACC | -0.195 |
| ATAGCCAC | -0.0283 |

| Sequence | PBM E-score |
| --- | --- |
| TATAGAAA | -0.16 |
| AAAGTACC | -0.00215 |
| AGACCGTC | -0.059 |
| CCTCCGCG | 0.445 |
| GTTCGCAA | -0.0113 |
| AATATCAG | 0.0083 |
| ACTATAGT | -0.0368 |
| CTGCGGGC | 0.218 |
| CTGCGGCC | 0.196 |
| GAAGTACC | 0.0442 |
| GTCTCGCA | -0.137 |
| GGCCCCCC | -0.0393 |
| GAAATAGA | 0.0892 |
| CAGTCGTA | -0.136 |
| GCAGCGCA | -0.0518 |
| CTTTATCA | -0.281 |
| ATACAAGG | -0.0921 |
| ATGCATCA | 0.107 |
| AAACGCCC | 0.135 |
| CACAACTC | 0.0536 |
| CAAACAAG | -0.0108 |
| GCATCTCA | -0.155 |
| AATGTCAG | -0.0916 |
| CAAAGATC | -0.0762 |
| ACTCTCTA | -0.31 |

| Sequence | PBM E-score |
| --- | --- |
| GCCGACGC | 0.178 |
| CCTAGGCC | 6e-05 |
| AGATTCAG | -0.0749 |
| CAAAGGGG | -0.1 |
| AGCCAGCG | -0.019 |
| CGGAGTGA | 0.285 |
| ACTCTCCT | -0.167 |
| ACAGCATA | 0.0179 |
| AGTTTACC | -0.0725 |
| ACCGGCAA | 0.185 |
| GACGACAC | -0.042 |
| CAGATGAA | -0.128 |
| AACAGCCG | -0.0154 |
| ATGGTTGC | -0.105 |
| ATGACGTA | -0.262 |
| CAAGAACG | -0.0114 |
| ATGTTTTC | 0.0627 |
| ATCAAATA | 0.0461 |
| GATGTGCA | -0.116 |
| GCAGCGAA | -0.146 |
| ATTCTAGG | -0.248 |
| AGGAACAG | -0.195 |

Source: the supplement of paper PMC3334620
